The shares of active, inactive and inconclusive entries below differ from those in the screen. Potencies of inconclusive entries are doubtful fits and often do not repeat. The source made the active and inactive calls. Unless noted, calls follow the shape of the dose curve; as a rule, active = well fitted curve in the direction sought with a large enough effect in the repeat runs; inconclusive = weak or mixed curves; inactive = no such curve, though single readings can be large; an effect the other way counts as inactive or inconclusive.
Key:
[1] = qHTS assay to identify small molecule agonists of H2AX - cell viability counter screen (AID 1224847; calls by dose curve; also: nearly all actives have a fitted effect of over 30% in size); settings: CHO-K1 viability, CellTiter-Glo luminescence, 3 h; series mostly up to 154 µM
Outline: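 Wild-type CHO-K1 cells (10% FBS medium) were plated overnight at 37C, exposed to compounds at 15 concentrations for 3 hr at 37C (0.76% DMSO final), and viability was read as CellTiter-Glo luminescence after 30 min at room temperature.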

[2] = qHTS RealTime-Glo MT Cell Viability Assay in HepG2 cells - 24 hour (AID 1224867); settings: RealTime-Glo luminescence; series mostly up to 76.8 µM; also: nearly all actives have a fitted effect of over 50% in size
Outline: (§1)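 Cell number in HepG2 cultures estimated from NanoLuc luminescence generated by metabolic reduction of a prosubstrate by living cells. The homogeneous, nonlytic format allowed repeated reads at 0, 8, 16, 24, 32 and 40 h of compound exposure.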

[3] = qHTS RealTime-Glo MT Cell Viability Assay in HEK293 cells - 32 hour (AID 1224868); settings: RealTime-Glo luminescence; series mostly up to 76.8 µM; also: nearly all actives have a fitted effect of over 50% in size
Outline: (§2)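 Homogeneous bioluminescent viability format in HEK293 cells (600 cells/well). Following 5 h at 37 C/5% CO2, 23 nL compound was pintooled; the signal was measured repeatedly during 40 h incubation.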

[4] = qHTS RealTime-Glo MT Cell Viability Assay in HepG2 cells - 40 hour (AID 1224870); settings: RealTime-Glo luminescence; series mostly up to 76.8 µM; also: nearly all actives have a fitted effect of over 50% in size
Outline: (§3)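 HepG2 cells (600/well) mixed with RealTime-Glo MT reagent, settled 5 h at 37 C/5% CO2 before compound addition. Nonlytic NanoLuc luminescence from viable-cell prosubstrate reduction read repeatedly during 40 h treatment at 37 C.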

[5] = A CellTox Green Cytotoxicity Assay to monitor cytotoxicity in HEK293 cells - 40 hour (AID 1224871); settings: CellTox Green fluorescence; series mostly up to 76.8 µM; also: nearly all actives have a fitted effect of over 45% in size
Outline: (§4)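 Tox21 screen in HEK293: membrane-impermeant cyanine dye fluoresces on binding dead-cell DNA; compound pinned 5 h post-seeding, plates held at 37 C, signal read repeatedly through 40 h.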

[6] = qHTS RealTime-Glo MT Cell Viability Assay in HepG2 cells - 8 hour (AID 1224873); settings: RealTime-Glo luminescence; series mostly up to 76.8 µM; also: nearly all actives have a fitted effect of over 55% in size
Outline: as §3

[7] = A CellTox Green Cytotoxicity Assay to monitor cytotoxicity in HepG2 cells - 24 hour (AID 1224878); settings: CellTox Green fluorescence; series mostly up to 76.8 µM; also: nearly all actives have a fitted effect of over 45% in size
Outline: (§5)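 Measurements at 0, 8, 16, 24, 32 and 40 h of treatment captured CellTox Green fluorescence in HepG2 cells that had been co-plated with reagent and preincubated 5 h at 37 C/5% CO2.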

[8] = A CellTox Green Cytotoxicity Assay to monitor cytotoxicity in HepG2 cells - 40 hour (AID 1224879); settings: CellTox Green fluorescence; series mostly up to 76.8 µM; also: nearly all actives have a fitted effect of over 40% in size
Outline: as §5

[9] = qHTS RealTime-Glo MT Cell Viability Assay in HEK293 cells - 16 hour (AID 1224872); settings: RealTime-Glo luminescence; series mostly up to 76.8 µM; also: nearly all actives have a fitted effect of over 50% in size
Outline: as §2

[10] = A CellTox Green Cytotoxicity Assay to monitor cytotoxicity in HEK293 cells - 24 hour (AID 1224875); settings: CellTox Green fluorescence; series mostly up to 76.8 µM; also: nearly all actives have a fitted effect of over 45% in size
Outline: as §4

[11] = qHTS RealTime-Glo MT Cell Viability Assay in HEK293 cells - 0 hour (AID 1224880); settings: RealTime-Glo luminescence; series mostly up to 76.8 µM; also: nearly all actives have a fitted effect of over 45% in size
Outline: (§6)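 HEK293 + NanoLuc + prosubstrate, 600 cells/well; 5 h, 37 C/5% CO2; compound 23 nL in DMSO by pintool; 37 C; luminescence read at 0, 8, 16, 24, 32 and 40 h time points.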

[12] = A CellTox Green Cytotoxicity Assay to monitor cytotoxicity in HEK293 cells - 32 hour (AID 1224881); settings: CellTox Green fluorescence; series mostly up to 76.8 µM; also: nearly all actives have a fitted effect of over 40% in size
Outline: as §4

[13] = qHTS RealTime-Glo MT Cell Viability Assay in HEK293 cells - 40 hour (AID 1224874); settings: RealTime-Glo luminescence; max response: active compounds read low; also: nearly all actives have a fitted effect of over 50% in size
Outline: as §6

[14] = A CellTox Green Cytotoxicity Assay to monitor cytotoxicity in HepG2 cells - 16 hour (AID 1224876); settings: CellTox Green fluorescence; series mostly up to 76.8 µM; also: nearly all actives have a fitted effect of over 45% in size
Outline: as §5

[15] = qHTS RealTime-Glo MT Cell Viability Assay in HepG2 cells - 32 hour (AID 1224877); settings: RealTime-Glo luminescence; series mostly up to 76.8 µM; also: nearly all actives have a fitted effect of over 55% in size
Outline: as §1

[16] = qHTS assay to identify small molecule antagonists of the estrogen related receptor (ERR) signaling pathway from Tox21 library (AID 1224848); settings: ERR reporter cell line, luciferase antagonist mode, 18 h; series mostly up to 92.4 µM; also: nearly all actives have a fitted effect of over 50% in size
Outline: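 Compounds dissolved in DMSO are pin-transferred onto ERR reporter cells (2,000 per well) that have settled for 6 h at 37 C. Plates then incubate 18 h at 37 C before ONE-Glo luciferase reagent and a luminescence read 30 min later.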

Measured: Potency
Potency is read from the fitted curve at half-maximal effect; tags tell the direction and shape of the fitted curve.

CCc1nn(CCCN2CCN(c3cccc(Cl)c3)CC2)c(=O)n1CCOc1ccccc1
inactive: [7]
inconclusive: [1] 61.9 µM [cytotoxic, single point] | [4] 26.8 µM [falling, single point] | [5] 16.9 µM [activator, partial curve] | [6] 23.9 µM [falling, single point] | [8] 23.9 µM [activator, single point]
active: [2] 23.9 µM | [3] 8.49 µM

COc1cc2ncnc(Nc3ccc(F)c(Cl)c3)c2cc1OCCCN1CCOCC1
active: [1] 55.2 µM | [9] 9.52 µM | [7] 23.9 µM | [8] 23.9 µM
inconclusive: [2] 23.9 µM [falling, partial curve] | [5] 26.8 µM [activator, single point] | [6] 26.8 µM [falling, single point] | [10] 26.8 µM [activator, single point] | [11] 19 µM [falling, partial curve, poor fit] | [12] 26.8 µM [activator, single point]

O=C(OCCOCCO)c1ccccc1Nc1cccc(C(F)(F)F)c1
active: [5] 2.39 µM
inactive: [12]
inconclusive: [1] 55.2 µM [cytotoxic, single point] | [3] 9.52 µM [cytotoxic, partial curve] | [13] 10.7 µM [cytotoxic, partial curve] | [14] 26.8 µM [activator, single point] | [7] 26.8 µM [activator, single point] | [8] 26.8 µM [activator, single point]

CN1CCN(Cc2cc(-c3ccc4[nH]c(=O)oc4c3)co2)[C@@H](c2ccc(F)cc2)C1
inconclusive: [1] 109 µM [cytotoxic] | [2] 47.1 µM [falling, single point] | [4] 47.1 µM [falling, single point] | [5] 52.9 µM [activator, single point] | [9] 26.5 µM [cytotoxic, partial curve] | [14] 47.1 µM [activator, partial curve, poor fit] | [15] 47.1 µM [cytotoxic, single point]

CC[C@@H]([C@H](C)O)n1ncn(-c2ccc(N3CCN(c4ccc(OC[C@@H]5CO[C@@](Cn6cncn6)(c6ccc(F)cc6F)C5)cc4)CC3)cc2)c1=O
inconclusive: [2] 9.52 µM [falling, partial curve] | [4] 10.7 µM [falling, partial curve] | [6] 9.52 µM [falling, partial curve]
active: [1] 19.6 µM | [9] 5.35 µM

COc1cc(Nc2c(C#N)cnc3cc(OCCCN4CCN(C)CC4)c(OC)cc23)c(Cl)cc1Cl
active: [1] 55.2 µM | [4] 23.9 µM | [9] 19 µM | [13] 7.56 µM | [14] 23.9 µM | [8] 9.52 µM
inconclusive: [2] 19 µM [falling, partial curve] | [6] 23.9 µM [falling, partial curve, poor fit]

CCCCC(=O)O[C@]1(C(=O)CO)[C@@H](C)C[C@H]2[C@@H]3CCC4=CC(=O)C=C[C@]4(C)[C@@]3(F)[C@@H](O)C[C@@]21C
inconclusive: [1] 127 µM [cytotoxic, single point] | [2] 49 µM [falling, partial curve, poor fit] | [3] 43.6 µM [cytotoxic, partial curve, poor fit] | [9] 49 µM [cytotoxic, partial curve] | [6] 54.9 µM [falling, partial curve, poor fit] | [13] 49 µM [cytotoxic, partial curve, poor fit]
inactive: [8]

CCCCC(CC)COCCCN (stereo not drawn)
inconclusive: [1] 125 µM [cytotoxic, single point] | [16] 48 µM [inhibitor, partial curve] | [3] 38.5 µM [cytotoxic, partial curve] | [9] 38.5 µM [cytotoxic, partial curve, poor fit] | [13] 43.2 µM [cytotoxic, partial curve]

— PubChem BioAssay (Tox21)
